The target of the test is F-actin from rabbit skeletal muscle (rabbit, UniProt P68135). Description: co-sedimentation.

The term Kd denotes the constant that tells how readily two partners part at equilibrium. Lower therefore signals a tighter complex.

B1: wild-type human cMyBP-C C0-C2 (domain or fragment)
chain: not shown
Consider B1, for which the Kd was found to be 8.6 µM.

Source of the values: PMC6366860 (Journal of molecular and cellular cardiology, 2018).
